# Where “and” joins values, the source holds several entries; their conditions need not be identical. Identical values can stand only once. Screen size: about 360,000 compounds; about 16,000 (4.4%) were called active. The shares of active, inactive and inconclusive entries below differ from those in the screen. Calls follow the shape of the dose curve; as a rule, active = well fitted inhibition curve with a large enough effect; inconclusive = small, poorly fitted or top-dose-only effect; inactive = no such curve, though single readings can be large or run the other way. A potency beside an inconclusive call is a rough fit, not a confirmed value.
# Target: Bromodomain adjacent to zinc finger domain protein 2B (Homo sapiens) (UniProt Q9UIF8)
# UniProt Q9UIF8, sequence (Q9UIF8 whole entry, looked up, the tested form may be a part): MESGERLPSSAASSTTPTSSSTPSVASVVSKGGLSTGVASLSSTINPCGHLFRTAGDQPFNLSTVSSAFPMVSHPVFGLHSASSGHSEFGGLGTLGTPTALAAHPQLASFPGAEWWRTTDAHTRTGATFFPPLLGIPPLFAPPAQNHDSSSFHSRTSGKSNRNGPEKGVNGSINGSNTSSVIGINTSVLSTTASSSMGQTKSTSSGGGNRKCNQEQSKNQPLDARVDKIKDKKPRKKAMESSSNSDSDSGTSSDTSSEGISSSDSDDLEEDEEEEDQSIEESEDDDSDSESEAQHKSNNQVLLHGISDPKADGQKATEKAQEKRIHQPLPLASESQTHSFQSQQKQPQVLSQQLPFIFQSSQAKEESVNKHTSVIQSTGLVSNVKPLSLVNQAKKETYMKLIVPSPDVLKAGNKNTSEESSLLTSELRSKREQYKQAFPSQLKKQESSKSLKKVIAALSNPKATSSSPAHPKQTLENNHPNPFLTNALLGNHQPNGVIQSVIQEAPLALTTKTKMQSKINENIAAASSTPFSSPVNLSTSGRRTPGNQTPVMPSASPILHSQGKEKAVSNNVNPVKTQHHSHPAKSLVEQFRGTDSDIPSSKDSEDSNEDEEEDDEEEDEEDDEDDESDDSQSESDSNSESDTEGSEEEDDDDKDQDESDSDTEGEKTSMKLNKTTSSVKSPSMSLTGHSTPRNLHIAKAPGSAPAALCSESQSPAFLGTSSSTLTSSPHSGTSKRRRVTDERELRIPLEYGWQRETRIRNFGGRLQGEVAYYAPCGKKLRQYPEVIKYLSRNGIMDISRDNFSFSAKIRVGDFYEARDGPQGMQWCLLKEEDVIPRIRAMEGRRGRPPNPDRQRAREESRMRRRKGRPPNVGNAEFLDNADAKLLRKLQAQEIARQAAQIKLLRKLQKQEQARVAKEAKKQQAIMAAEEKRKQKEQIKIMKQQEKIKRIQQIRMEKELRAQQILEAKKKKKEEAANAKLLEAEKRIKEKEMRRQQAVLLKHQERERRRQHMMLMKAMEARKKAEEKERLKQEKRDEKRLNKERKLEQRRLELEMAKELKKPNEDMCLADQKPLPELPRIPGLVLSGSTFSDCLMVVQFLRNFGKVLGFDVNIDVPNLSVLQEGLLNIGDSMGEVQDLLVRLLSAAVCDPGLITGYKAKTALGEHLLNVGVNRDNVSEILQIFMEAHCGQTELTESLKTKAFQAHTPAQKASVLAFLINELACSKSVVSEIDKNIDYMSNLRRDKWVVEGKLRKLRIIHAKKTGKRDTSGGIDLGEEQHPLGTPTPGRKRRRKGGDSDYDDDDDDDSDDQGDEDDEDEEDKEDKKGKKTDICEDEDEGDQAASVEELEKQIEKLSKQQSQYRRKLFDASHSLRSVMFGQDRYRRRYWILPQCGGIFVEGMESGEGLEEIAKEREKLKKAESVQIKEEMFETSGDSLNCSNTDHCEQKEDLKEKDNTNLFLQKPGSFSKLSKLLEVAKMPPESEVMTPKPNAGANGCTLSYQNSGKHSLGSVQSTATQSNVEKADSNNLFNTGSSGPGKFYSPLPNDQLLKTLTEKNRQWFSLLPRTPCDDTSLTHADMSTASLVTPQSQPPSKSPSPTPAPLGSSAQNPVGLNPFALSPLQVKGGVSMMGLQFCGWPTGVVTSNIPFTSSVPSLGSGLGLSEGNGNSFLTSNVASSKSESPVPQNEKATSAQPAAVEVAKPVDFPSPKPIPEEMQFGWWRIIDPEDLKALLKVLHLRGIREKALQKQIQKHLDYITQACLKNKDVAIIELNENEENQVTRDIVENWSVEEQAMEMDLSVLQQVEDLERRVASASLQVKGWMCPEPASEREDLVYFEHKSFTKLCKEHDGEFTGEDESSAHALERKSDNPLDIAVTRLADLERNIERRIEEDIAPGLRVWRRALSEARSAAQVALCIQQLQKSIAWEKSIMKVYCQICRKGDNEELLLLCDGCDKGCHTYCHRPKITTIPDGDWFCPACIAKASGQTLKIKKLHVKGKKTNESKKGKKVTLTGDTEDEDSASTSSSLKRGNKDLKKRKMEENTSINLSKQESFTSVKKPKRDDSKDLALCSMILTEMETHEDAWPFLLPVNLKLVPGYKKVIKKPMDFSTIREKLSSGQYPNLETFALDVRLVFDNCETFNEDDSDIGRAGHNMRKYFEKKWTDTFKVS
# Assay: qHTS Assay for Inhibitors of BAZ2B; also: nearly all actives have a fitted effect of over 60% in size
# Settings: AlphaScreen BAZ2B-H3K14Ac peptide displacement; activity change, negative = inhibition: at 114 µM (top of the series)
# Summary of the method: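 Protein-peptide AlphaScreen: BAZ2B 50 nM, b-H3K14Ac 50 nM, 1x PBS pH 7.4 + 0.01% Tween-20. Preincubation 30 min RT; cpd 30 min RT (top 110 uM); beads 20 min RT, light-protected.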
# % is scaled to controls: 0 for no effect and ±100 for the full control effect; potency is read from the fitted curve at half-maximal effect; tags tell the direction and shape of the fitted curve.
SMILES,Potency,"activity change, negative = inhibition"
COc1cc([N+](=O)[O-])cc(/C=N/NC(=O)C(O)(c2ccccc2)c2ccccc2)c1O,"inconclusive: 89.1 µM [inhibitor, single point]",–
COc1c(/C=N/NC(=O)[C@H]2C[C@@H]2c2ccccc2)c(CCN(C)C(C)=O)cc2c1OCO2,–,inactive: -14%
Cc1ccc(-c2c(C)sc(NC(=O)C3C4CCC(O4)C3C(=O)O)c2C(=O)OC(C)C)cc1 (configuration not stated),"inconclusive: 79.4 µM [inhibitor, single point]",–
O=C(Nc1c(C(=O)N2CCN(c3ccccc3)CC2)oc2ccccc12)c1ccco1,"inconclusive: 39.8 µM [inhibitor, single point]",–
CCCc1ccc(C(C)NC(=S)NCc2ccc(F)cc2)cc1 (configuration not stated),–,inactive: -35.5%
O=[N+]([O-])c1cccc(CSC2=NCCN2S(=O)(=O)c2ccccc2)c1,"inconclusive: 70.8 µM [inhibitor, single point]",–
OC(CNCc1ccc(Cl)cc1)COc1ccccc1 (configuration not stated),active: 56.2 µM,–
CC(=O)Nc1ccc(-c2csc(NC(=O)C3CSC4(C)CCC(=O)N34)n2)cc1 (configuration not stated),–,inactive: 6.62%
CCC(C(=O)NC1CCCCC1)n1nc(C)c2c(C)n(-c3ccccc3)nc2c1=O (configuration not stated),–,inactive: -1.79%
Cc1ccc[n+](-c2nc3ccccc3nc2C(=C=[N-])C#N)c1,"inconclusive: 79.4 µM [inhibitor, single point] and inconclusive: 44.7 µM [inhibitor, partial curve]",–
C/C(=N\Nc1nc2ccccc2[nH]1)c1cc2ccccc2o1,"inconclusive: 50.1 µM [inhibitor, partial curve]",–
COc1ccc2[nH]c3c(NCCC4=CCCCC4)ncnc3c2c1,active: 28.2 µM,–
CC(C)Nc1nc(NC(C)C)nc(OCCOC(=O)c2ccccc2)n1,–,inactive: -2.28%
O=C(Nc1ccc2oc(-c3ccncc3)nc2c1)c1ccc2c(c1)OCCO2,active: 56.2 µM,–
CC(=O)N1CCN(c2ccc(NC(=S)NC(=O)c3ccccc3)cc2)CC1,–,inactive: 0.333%
CCSc1nnc(NC(=O)NC(CC)(C(F)(F)F)C(F)(F)F)s1,–,inactive: 6.51%
O=C(NC(=S)Nc1ccc(CN2CCOCC2)cc1)c1ccc(-c2cccc(Cl)c2)o1,"inconclusive: 25.1 µM [inhibitor, partial curve]",–
O=C(CCN1C(=O)S/C(=C\c2ccc(F)cc2)C1=O)Nc1ccc(C(=O)O)c(O)c1,"inconclusive: 0.0251 µM [inhibitor, full curve, poor fit]",–
COc1ccccc1N(CC(=O)N/N=C(\C)c1ccccc1O)S(=O)(=O)c1ccc(C)cc1,active: 50.1 µM,–
Cc1ccc(CCNC(=O)CCS(=O)(=O)c2cc3c(cc2C)NC(=O)CO3)cc1,"inconclusive: 11.2 µM [inhibitor, full curve, poor fit]",–
CCN(CC)c1ccc(NC(=O)c2sc3nc4c(cc3c2N)CN(C)CC4)cc1,"inconclusive: 10 µM [inhibitor, partial curve, poor fit]",–
COc1ccc(-c2ccc(CCC(=O)O)n2CC(=O)Nc2ccccc2C)cc1,"inconclusive: 70.8 µM [inhibitor, single point]",–
Cc1ccc(/C=N/Nc2ccc(C(=O)O)cc2)s1,"inconclusive: 50.1 µM [inhibitor, partial curve]",–
CCn1c(C(=O)N2CCCC(C(=O)N3CCN(c4cc(C)ccc4C)CC3)C2)cc2sccc21 (configuration not stated),"inconclusive: 22.4 µM [inhibitor, full curve]",–

SMILES,Potency,"activity change, negative = inhibition"
Cc1ccccc1NC(=O)CN1C(=O)S/C(=C\c2ccc(-c3cc(C(=O)O)ccc3C)o2)C1=O,active: 14.1 µM,–
CCN(CC)C(=O)c1c(-c2ccccc2)oc2ccc(O)cc12,–,inactive: -14.7%
CS/C(N)=N/N=C/c1cc(Br)cc(Br)c1O,active: 12.6 µM,–
CC(C)(C)NC(=O)Cn1nnc(-c2ccc(S(C)(=O)=O)cc2)n1,–,inactive: -3.32%
Nc1ccc(S(=O)(=O)Nc2nccc(/C=C/c3ccc([N+](=O)[O-])cc3)n2)cc1,–,inactive: -12.1%
CCOc1ccc2nc(C)cc(Nc3ccc(N4CCOCC4)cc3)c2c1,"inconclusive: 56.2 µM [inhibitor, single point]",–
Cc1cc(Br)ccc1NC(=O)CN(C)C(=O)Cn1c(=O)cnc2ccccc21,active: 79.4 µM,–
Nc1c(-c2cccc([N+](=O)[O-])c2)nc2ccccn12,"inconclusive: 50.1 µM [inhibitor, partial curve]",–
CCOC(=O)C1C(=O)C=C(c2ccc([N+](=O)[O-])cc2)CC1c1ccccc1 (configuration not stated),"inconclusive: 28.2 µM [inhibitor, full curve]",–
O=c1oc2ccccc2c(O)c1/C=C1\C=Nc2ccccc21,"inconclusive: 89.1 µM [inhibitor, single point]",–
CCOC(=O)c1c(NC(=O)C2COc3ccccc3O2)sc2c1CCN(Cc1ccccc1)C2 (configuration not stated),"inconclusive: 89.1 µM [inhibitor, single point]",–
O=C(NCC1CC1)c1onc(CSc2nc3ccccc3[nH]2)c1C(=O)NCC1CC1,"inconclusive: 100 µM [inhibitor, single point]",–
Cc1ccc(NC(=O)C(=O)c2cc(C)n(-c3ccc(F)cc3)c2C)cc1C,"inconclusive: 89.1 µM [inhibitor, single point]",–
COCCNc1nc(-n2nc(C)cc2C)nc2sc3c(c12)CCCC3,"inconclusive: 89.1 µM [inhibitor, single point]",–
CN(CC(=O)Nc1ccc(N2CCOCC2)cc1)CC(=O)Nc1ccc(Cl)cc1[N+](=O)[O-],active: 56.2 µM,–
COCCn1nnnc1C(c1ccccc1)N1CCN(c2ccccc2)CC1 (configuration not stated),active: 50.1 µM,–
CCN(CC)CCc1c(C)[nH]c(C(=O)OCc2ccccc2)c1C,"inconclusive: 10 µM [inhibitor, partial curve, poor fit]",–
O=C(O)c1cnn2cc(-c3[nH]ncc3[N+](=O)[O-])cnc12,"inconclusive: 89.1 µM [inhibitor, single point]",–
Cc1ccnc(N2C(=O)c3ccccc3C2Nc2ccc3c(c2)OCCO3)c1 (configuration not stated),"inconclusive: 44.7 µM [inhibitor, partial curve]",–
O=C(NNC1=NCCC1)C1CC1,"inconclusive: 89.1 µM [inhibitor, single point]",–
CCOC(=O)CNCCC(=O)c1ccc(Br)cc1,"inconclusive: 89.1 µM [inhibitor, single point]",–
C=CCn1c(SCC(=O)c2ccc(Cl)cc2)nnc1-c1ccc2c(c1)OCO2,"inconclusive: 44.7 µM [inhibitor, partial curve]",–
COc1ccc(CCN2C(=NC(=O)CC(C)C)SC3CS(=O)(=O)CC32)cc1OC (configuration not stated),–,inactive: 0.442%
CC(=O)Nc1cccc(NC(=O)c2cccc(-c3ccc(O)cc3)c2)c1,"inconclusive: 89.1 µM [inhibitor, single point]",–

SMILES,Potency,"activity change, negative = inhibition"
Cc1cccc(-c2noc(CSc3nc(-c4ccc(F)cc4)cc(=O)[nH]3)n2)c1,–,inactive: -9.2%
COc1ccc(/C=N/n2c(COc3ccccc3)n[nH]c2=S)cc1OC,–,inactive: -27.2%
O=C(NNS(=O)(=O)c1ccccc1F)c1cccc(S(=O)(=O)N2CCOCC2)c1,–,inactive: -5.24%
CN(C)c1ccc(C2(c3ccc(N(C)C)cc3)OC(=O)c3cc(N)ccc32)cc1,active: 17.8 µM,–
CCOc1cc2c3c(c1)C1(C(=O)N3C(C)(C)C=C2C)C(C#N)=C(N)Oc2cc(O)ccc21 (configuration not stated),"inconclusive: 39.8 µM [inhibitor, full curve]",–
O=C(O)c1ccc(N2C(=O)c3[nH]nc(-c4ccccc4)c3C2c2ccccc2)cc1 (configuration not stated),–,inactive: 6.03%
CC1CCCN(Cc2c(C(=O)N3CCc4ccccc4C3)nc3ccc(Cl)cn23)C1 (configuration not stated),"inconclusive: 79.4 µM [inhibitor, single point]",–
CC(C)(C)c1cc(CN2CCCC(O)C2)c(O)c(C(C)(C)C)c1 (configuration not stated),active: 79.4 µM,–
CC(C)(C)NC(=O)C(c1ccccn1)N(C(=O)C1CSC(=O)C1)c1ccccc1F (configuration not stated),–,inactive: 6.11%
CCC(C)NCCOc1ccc(Br)cc1 (configuration not stated),"inconclusive: 79.4 µM [inhibitor, partial curve]",–
CSCCC(NS(=O)(=O)c1ccccc1F)C(=O)NCC(C)(C)N1CCOCC1 (configuration not stated),–,inactive: -2.5%
CSCc1ccc(C(=O)NC(C)c2cnn(-c3ccccn3)c2C)o1 (configuration not stated),–,inactive: -4.6%
CC1(C)CCN2CCC(C)(C)c3c(O)ccc1c32,active: 44.7 µM,–
COc1ccc(/C(C)=C2\SC(=S)N(CCC(=O)O)C2=O)cc1,"inconclusive: 50.1 µM [inhibitor, partial curve]",–
Cc1cc(C)cc(OCc2ccc(C(=O)Nc3ccccc3F)o2)c1,"inconclusive: 89.1 µM [inhibitor, single point]",–
NCCCCCc1nnc(SCC(=O)c2ccc(Cl)cc2)o1,–,inactive: 0.426%
CC1CCCC(C)N1C(=O)CNCc1ccc2c(c1)OCO2 (configuration not stated),"inconclusive: 89.1 µM [inhibitor, single point]",–
CC(=O)c1ccc(OCCCN2CCCCC2)cc1,active: 50.1 µM,–
Cc1oc(C(C)(C)C)cc1C(N)=O,"inconclusive: 89.1 µM [inhibitor, single point]",–
COC(=O)c1[nH]c2ccc(C)cc2c1NC(=O)CN1CCc2cc(OC)c(OC)cc2C1,"inconclusive: 50.1 µM [inhibitor, partial curve]",–
CCOC(=O)c1c(C)[nH]c(C(=O)Nc2cc(OCC)c(N3CCOCC3)cc2OCC)c1C,–,inactive: -24%
N#CCCCSc1nnc(CSc2nc3ccccc3s2)n1-c1ccccc1,–,inactive: -34.4%
COc1cccc(N(C(=O)c2cccs2)c2nc3ccccc3s2)c1,–,inactive: 1.98%
CCN(CC)c1ccc(/C=N/NC(=O)OC(C)(C)C)cc1,"inconclusive: 44.7 µM [inhibitor, partial curve]",–
